The test deals with TYKNU. The experiment in a line: fractional viability relative to vehicle; TYKNU is a high-grade serous ovarian cancer line; higher = less growth inhibition. Conditions: 72 h, genotype: OPA1 knockout (sgOPA1 #2). A digest of the protocol: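 TYKNU control cells or lentiCRISPRv2 knockout derivatives were seeded at 500 cells per well into drug-stamped 384-well plates holding a ~2100-compound library at 2 or 10 μM, in duplicate. Cells were grown at 37 °C in 5% CO2 in RPMI 1640 with 10% FBS, and drug treatment lasted 72 h. Viability was read by Cell Titer Glo luminescence. Duplicate treatment wells were averaged and normalised to duplicate control wells from the same plate position.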

Structures are written as SMILES. Where a name gives a salt, the structure may show the parent alone. In all, about 2,000 compounds were measured (“fractional viability relative to vehicle”: median about 0.92, lowest 2% from about 0.11 on). This is one part of the list.

On to `Cc1ncc(CO)c(CO)c1O` [Pyridoxine HCl], for which the fractional viability runs as follows: (2uM) 0.902; (10uM) 1.02.
For `O=C(O)c1ccc(-c2c[nH]c3ncc(-c4ccccc4)cc23)cc1C1CCCC1` the same measures were 0.98 and 1.11.
As for `C=CC(=O)Nc1cc(Nc2nccc(-c3c[nH]c4ccccc34)n2)c(OC)cc1N(C)CCN(C)C`, the fractional viability runs as follows: (2uM) 0.542; (10uM) 0.0815.
On the same counts, the results for `Cc1ccc(NCCCc2ccccc2)c(N)c1` are 0.805 and 1.03.
On the same counts, the results for `C=CC(=O)Nc1cc(Nc2nccc(-c3cn(C)c4ccccc34)n2)c(OC)cc1N(C)CCN(C)C` are 0.766 and 0.0725.
For the molecule `C#Cc1cccc(Nc2ncnc3cc4c(cc23)OCCOCCOCCO4)c1` [Icotinib], the fractional viability came out at 1.12 (2uM) and 1.3 (10uM).
For `CC(C)c1ccc(NC(=O)Cn2cnc3c2c(=O)n(C)c(=O)n3C)cc1` the same measures were 0.962 and 0.898.
On the same counts, the results for `C[C@H](NC(=O)/C(C#N)=C/c1cccc(Br)n1)c1ccccc1` are 0.867 and 0.0926.
Turning to `CCNC(=O)c1[nH]nc(-c2cc(Cl)c(O)cc2O)c1-c1ccc(OC)cc1`, the fractional viability is 0.758 (2uM) and 0.515 (10uM).
For `C[C@]12CC[C@@H]3c4ccc(O)cc4CC[C@H]3[C@@H]1CC[C@@H]2O` [Estradiol] the same measures were 1.16 and 0.962.
For the molecule `CCCN(CCC)S(=O)(=O)c1ccc(C(=O)O)cc1` [Probenecid], the fractional viability runs as follows: (2uM) 1.13; (10uM) 0.846.
As for `CCNC(=O)Nc1ccc(-c2nc3c(c(N4CCOC[C@@H]4C)n2)CCN(C2COC2)C3)cc1`, the fractional viability is, setting by setting: (2uM) 0.849; (10uM) 0.848.
On the same counts, the results for `CC(=O)[C@H]1CC[C@H]2[C@@H]3CCC4=CC(=O)CC[C@]4(C)[C@H]3CC[C@]12C` [Progesterone] are 0.973 and 0.82.
On the same counts, the results for `Cn1cc(CNCC2CCN(c3ncc(C(=O)NO)cn3)CC2)c2ccccc21` are 0.224 and 0.19.
As to `CN(C)CC/C=C1/c2ccccc2Sc2ccc(Cl)cc21` [Chlorprothixene], the fractional viability by setting is: (2uM) 1.2; (10uM) 0.945.
On the same counts, the results for `COc1ccc2[nH]c([S+]([O-])Cc3ncc(C)c(OC)c3C)nc2n1` (centres undefined) [Tenatoprazole] are 1.03 and 0.972.
For `CCOC(=O)CCNc1cc(N2CCc3ccccc3CC2)nc(-c2ccccn2)n1` the same measures were 0.533 and 0.297.
For `CN(C)CCOC(c1ccccc1)c1ccccc1` [Diphenhydramine HCl] the same measures were 1.27 and 0.888.
In the case of `Nc1cccc2c1C(=O)N(C1CCC(=O)NC1=O)C2=O` (centres undefined) [Pomalidomide], the fractional viability is 1.18 (2uM) and 1.05 (10uM).
Regarding `Oc1ccc(OC2CCCCO2)cc1` (centres undefined) [Deoxyarbutin], the fractional viability stood at 0.967 (2uM) and 0.834 (10uM).
On the same counts, the results for `N[C@@H](Cc1cc(I)c(Oc2cc(I)c(O)c(I)c2)c(I)c1)C(=O)O` [L-Thyroxine] are 1.08 and 1.01.
`CC1(C)CCC(C)(C)c2cc(NC(=O)c3ccc(C(=O)O)cc3)ccc21` [Tamibarotene]: the fractional viability runs as follows: (2uM) 0.873; (10uM) 0.735.
With `COc1cc(C(=O)O)ccc1NC(=O)[C@@H]1N[C@@H](CC(C)(C)C)[C@](C#N)(c2ccc(Cl)cc2F)[C@H]1c1cccc(Cl)c1F` [Idasanutlin (RG-7388)], the fractional viability reads like this: (2uM) 0.86; (10uM) 0.841.
For `O=C(O)C(O)Cc1ccc(O)c(O)c1` (centres undefined) [Sodium Danshensu] the same measures were 1.04 and 0.885.
For `O=C1Nc2ccccc2/C1=C1/Nc2ccccc2C1=O` [Indirubin] the same measures were 0.882 and 0.972.
For `Clc1ccc(CSC(Cn2ccnc2)c2ccc(Cl)cc2Cl)cc1` (centres undefined) [Sulconazole Nitrate] the same measures were 0.878 and 0.781.
Regarding `O=C(c1ccc(Nc2nccc(-c3cc4ccccc4s3)n2)cc1)N1CCC(N2CCCC2)CC1` [IKK-16 (IKK Inhibitor VII)], the fractional viability by setting is: (2uM) 0.74; (10uM) 0.0971.
Take `Nc1ncnc2c1ncn2[C@@H]1O[C@H](CO)[C@@H](O)[C@H]1O` [Adenosine]: the fractional viability was found to be 1.1 (2uM) and 1.01 (10uM).
For `Cc1cc(C)c(Nc2ccnc(Nc3ccc(C#N)cc3)n2)c(C)c1` [Dapivirine (TMC120)] the same measures were 0.814 and 0.461.
With `Cc1cc(/C=C2/SC(=S)NC2=O)c(C)n1-c1cccnc1` [Optovin], the fractional viability by setting is: (2uM) 0.821; (10uM) 0.988.
With `Nc1ccn([C@@H]2O[C@H](CO)[C@@H](O)C2(F)F)c(=O)n1` [Gemcitabine], the fractional viability was found to be 0.34 (2uM) and 0.299 (10uM).
On the same counts, the results for `COc1ccccc1N1CCN(CCN(C(=O)C2CCCCC2)c2ccccn2)CC1` are 0.824 and 0.89.
On the same counts, the results for `CN(C)CCN(Cc1ccccc1)c1ccccn1` [Tripelennamine HCl] are 1.04 and 0.894.
On the same counts, the results for `CC1CNc2c(cccc2S(=O)(=O)N[C@@H](CCCNC(=N)N)C(=O)N2CC[C@@H](C)C[C@@H]2C(=O)O)C1` (some centres undefined) [Argatroban] are 1.07 and 1.2.
`Fc1ccc(Cl)cc1-c1nc(Nc2ccncc2)c2nccnc2n1`: the fractional viability came out at 1.31 (2uM) and 1.21 (10uM).
Consider `CO[C@H]1C[C@@H]2CC[C@@H](C)[C@@](O)(O2)C(=O)C(=O)N2CCCC[C@H]2C(=O)O[C@H]([C@H](C)C[C@@H]2CC[C@@H](OCCO)[C@H](OC)C2)CC(=O)[C@H](C)/C=C(\C)[C@@H](O)[C@@H](OC)C(=O)[C@H](C)C[C@H](C)/C=C/C=C/C=C/1C` [Everolimus (RAD001)], for which the fractional viability runs as follows: (2uM) 0.862; (10uM) 0.662.
On the same counts, the results for `O=C(/C=C/c1ccccc1)NC(NC(=S)Nc1cccc2cccnc12)C(Cl)(Cl)Cl` (centres undefined) [Salubrinal] are 0.896 and 0.834.
For `CC(=O)O[C@@]12CO[C@@H]1C[C@H](O)[C@@]1(C)C(=O)[C@H](O)C3=C(C)[C@@H](OC(=O)[C@H](O)[C@@H](NC(=O)OC(C)(C)C)c4ccccc4)C[C@@](O)([C@@H](OC(=O)c4ccccc4)[C@H]21)C3(C)C` [Docetaxel] the same measures were 0.703 and 0.79.
On the same counts, the results for `CCC[C@@H]1C[C@@H](C(=O)N[C@@H]([C@H]2O[C@H](SC)[C@H](O)[C@@H](O)[C@H]2O)[C@H](C)Cl)N(C)C1` [Clindamycin] are 0.977 and 1.42.
As to `CCC[C@@H]1C[C@@H](C(=O)N[C@@H]([C@H]2O[C@H](SC)[C@H](O)[C@@H](O)[C@H]2O)[C@H](C)Cl)N(C)C1` [Clindamycin HCl], the fractional viability came to 1.05 (2uM) and 1.24 (10uM).
With `CO[C@H]1/C=C\C=C(/C)C(=O)NC2=CC(=O)C(NCCN(C)C)=C(C[C@@H](C)C[C@H](OC)[C@H](O)[C@@H](C)/C=C(\C)[C@@H]1OC(N)=O)C2=O` [17-DMAG (Alvespimycin) HCl], the fractional viability amounted to 0.93 (2uM) and 0.744 (10uM).
The molecule `O=C(N[C@H](CO)[C@H](O)c1ccc([N+](=O)[O-])cc1)C(Cl)Cl` [Chloramphenicol] gave a fractional viability (2uM) of 0.954 and a fractional viability (10uM) of 1.05.

These data come from the supplement of paper PMC5919970.
